Experimental findings from the antibiotic and cytotoxicity screens of Wong et al. (2023) are described below.

For assay [1], the system named is HSkMC (human skeletal muscle cells). In words: cytotoxicity call (relative viability < 0.9). The conditions noted are these: 10 µM.
For assay [2], the system named is HepG2. Kind of assay: cytotoxicity call (relative viability < 0.9). The conditions noted are these: 10 µM.
Assay [3] deals with S. aureus RN4220. In words: growth inhibition call (relative growth <= 0.2). The following applies: 50 µM.

Some of the results follow.

As for `CCCC(=O)Nc1ccc2c(c1)OC[C@@H](C)N(C(=O)Cc1ccccn1)C[C@@H](C)[C@H](OC)CN(C)C2=O`, the cytotoxicity call in assay [1] and in assay [2] was “inactive” each time. For the same compound, the growth inhibition call in assay [3] is “inactive”.
Consider `CN1CCN([C@@H]2CCN(S(C)(=O)=O)[C@H]2Cc2cnn(C)c2)CC1`, for which the cytotoxicity call in assay [1] and in assay [2] was “inactive” in each case. The growth inhibition call in assay [3] is “inactive”.
As for `COCC#Cc1ccc2c(c1)O[C@@H](CN(C)S(=O)(=O)c1ccc(OC)cc1)[C@H](C)CN([C@H](C)CO)S2(=O)=O`, the cytotoxicity call in assay [1] and in assay [2] was “inactive” in each case. Also, the growth inhibition call in assay [3] is “inactive”.
On to `Cc1nc2n(c(=O)c1CCN1CCC(c3noc4cc(F)ccc34)CC1)CCCC2`, for which the cytotoxicity call in assay [1] and in assay [2] was “inactive” each time. The growth inhibition call in assay [3] is “inactive”.
As for `COc1ccc(C#Cc2cccc(-c3nc(C(=O)N4CCN(Cc5ccccc5)CC4)cc4c3[C@H](CCO)N(S(=O)C(C)(C)C)C4)c2)cc1OC` (stereo not given in full), the cytotoxicity call in assay [1] and in assay [2] was “inactive” each time. The growth inhibition call in assay [3] was “inactive”.
For the compound `C[C@@H]1CCCCO[C@@H](CN(C)C(=O)CCC(F)(F)F)[C@H](C)CN([C@H](C)CO)C(=O)c2cc(NC(=O)C3CCCCC3)ccc2O1`, the cytotoxicity call in assay [1] and in assay [2] was “inactive” in each case. In addition, the growth inhibition call in assay [3] was “inactive”.
Take `C[C@@H]1CN([C@@H](C)CO)C(=O)c2cccc(NS(=O)(=O)c3ccc(Cl)cc3)c2O[C@H]1CN(C)C(=O)Nc1ccc(C(F)(F)F)cc1`: the cytotoxicity call in assay [1] and in assay [2] was “inactive” in each case. Besides, the growth inhibition call in assay [3] was “inactive”.
In the case of `COc1cccc(S(=O)(=O)Nc2ccc3c(c2)OC[C@@H](C)N(C(=O)Cc2cccnc2)C[C@H](C)[C@@H](OC)CN(C)C3=O)c1`, the cytotoxicity call in assay [1] and in assay [2] was “inactive” each time. In addition, in assay [3], the growth inhibition call was “inactive”.
Consider `COc1ccc(NC(=O)Nc2ccc3c(c2)CC(=O)N([C@@H](C)CO)C[C@H](C)[C@@H](CN(C)CC2CCCCC2)O3)cc1`, for which the cytotoxicity call in assay [1] and in assay [2] was “inactive” each time. Besides, in assay [3], the growth inhibition call was “inactive”.
On to `C[C@@H]1CCCCO[C@H](CN(C)C(=O)c2ccccc2)[C@@H](C)CN([C@H](C)CO)C(=O)c2cc(NC(=O)NC3CCCCC3)ccc2O1`, for which the cytotoxicity call in assay [1] and in assay [2] was “inactive” each time. The growth inhibition call in assay [3] was “inactive”.
For `C[C@H]1CN([C@@H](C)CO)C(=O)c2cc(C3=CCCC3)cnc2O[C@H]1CN(C)C(=O)c1ccc2c(c1)OCO2`, in assay [1], the cytotoxicity call was “inactive”. In addition, the cytotoxicity call in assay [2] was “active”. Also, the growth inhibition call in assay [3] was “inactive”.
Turning to `NC1=NCCCC1`, the cytotoxicity call in assay [1] and in assay [2] was “inactive” in each case. Moreover, in assay [3], the growth inhibition call is “inactive”.
In the case of `C[C@H](CO)N1C[C@H](C)[C@@H](CN(C)S(=O)(=O)c2cccs2)Oc2c(NC(=O)C3CCOCC3)cccc2C1=O`, the cytotoxicity call in assay [1] and in assay [2] was “inactive” throughout. Besides, in assay [3], the growth inhibition call was “inactive”.
`C[C@@H]1CCCCO[C@@H](CN(C)C(=O)Nc2cccc3ccccc23)[C@H](C)CN([C@@H](C)CO)C(=O)c2cc(NC(=O)Nc3ccc(F)cc3)ccc2O1`: the cytotoxicity call in assay [1] and in assay [2] was “inactive” throughout. In addition, the growth inhibition call in assay [3] is “inactive”.
With `O=C(/C=C/c1ccc(O)c(O)c1)O[C@H]1[C@H](O)[C@@H](O)[C@H](OCCc2ccc(O)c(O)c2)O[C@@H]1CO`, the cytotoxicity call in assay [1] and in assay [2] was “inactive” in each case. For the same compound, the growth inhibition call in assay [3] is “inactive”.
Turning to `C[C@@H]1CN([C@H](C)CO)C(=O)c2cc(Br)cnc2O[C@@H]1CN(C)S(=O)(=O)c1ccccc1`, the cytotoxicity call in assay [1] and in assay [2] was “inactive” each time. For the same compound, the growth inhibition call in assay [3] is “inactive”.
Consider `CC(C)NC(=O)N[C@@H]1CC[C@H](CCN)O[C@H]1CO`, for which the cytotoxicity call in assay [1] and in assay [2] was “inactive” each time. For the same compound, the growth inhibition call in assay [3] is “inactive”.
With `Cc1noc(C)c1NC(=O)Nc1ccc2c(c1)C(=O)N([C@H](C)CO)C[C@@H](C)[C@H](CN(C)S(=O)(=O)c1ccc(F)cc1)OCCCC[C@H](C)O2`, the cytotoxicity call in assay [1] and in assay [2] was “inactive” each time. The growth inhibition call in assay [3] was “inactive”.
As for `O=C(C[C@H]1CC[C@@H]2[C@H](COC[C@H](O)CN2S(=O)(=O)c2ccccc2Cl)O1)NCc1ccccc1Cl`, the cytotoxicity call in assay [1] and in assay [2] was “inactive” each time. The growth inhibition call in assay [3] is “inactive”.
Consider `C[C@@H]1CN([C@H](C)CO)C(=O)c2cc(-c3ccncc3)cnc2O[C@H]1CN(C)C(=O)Nc1ccc2c(c1)OCO2`, for which the cytotoxicity call in assay [1] and in assay [2] was “inactive” each time. For the same compound, the growth inhibition call in assay [3] is “inactive”.
`CC1(C)C=Cc2c(nc3ccccc3c2NCc2ccccc2)C1`: in assay [1], the cytotoxicity call is “inactive”. Moreover, in assay [2], the cytotoxicity call is “active”. Further, the growth inhibition call in assay [3] was “inactive”.
Turning to `COc1ccc(S(=O)(=O)N(C)C[C@@H]2Oc3ccc(NC(=O)Cn4cnnn4)cc3CC(=O)N([C@@H](C)CO)C[C@H]2C)cc1`, the cytotoxicity call in assay [1] and in assay [2] was “inactive” in each case. Besides, the growth inhibition call in assay [3] is “inactive”.
For `C[C@@H]1CN([C@H](C)CO)C(=O)CCCn2cc(nn2)CO[C@@H]1CN(C)S(=O)(=O)c1ccc(Oc2ccccc2)cc1`, the cytotoxicity call in assay [1] and in assay [2] was “inactive” in each case. Also, the growth inhibition call in assay [3] is “inactive”.
Take `C[C@H]1CN([C@@H](C)CO)C(=O)Cc2cc(NC(=O)CCCCCC(=O)Nc3ccccc3N)ccc2O[C@@H]1CN(C)Cc1ccccc1`: the cytotoxicity call in assay [1] and in assay [2] was “inactive” in each case. Besides, in assay [3], the growth inhibition call is “inactive”.
For the compound `C=CCOC(=O)[C@H]1[C@@H]2C(=O)O[C@@H](c3ccccc3)[C@@H](c3ccccc3)N2[C@@H](c2ccc(OCCOC(=O)[C@H]3C[C@H]4C(=O)N[C@@H](CCCCNC(C)=O)C(=O)N4[C@H]3c3ccc(O)cc3)cc2)[C@]12C(=O)Nc1ccccc12`, the cytotoxicity call in assay [1] and in assay [2] was “inactive” in each case. Besides, in assay [3], the growth inhibition call is “inactive”.
